According to paper PMC4336329 (PLoS ONE, 2015):
In all, about 310,000 compounds went through this assay and about 2,200 (0.71%) showed an effect of 50% or more. Effects have a minus sign here. Some of the results follow.

These compounds were tested against human ether-à-go-go-related gene (hERG) potassium channel (human, UniProt Q12809) (assay: primary screen, population patch clamp on CHO cells stably expressing hERG).
Chain of human ether-à-go-go-related gene (hERG) potassium channel (Q12809 whole entry, looked up): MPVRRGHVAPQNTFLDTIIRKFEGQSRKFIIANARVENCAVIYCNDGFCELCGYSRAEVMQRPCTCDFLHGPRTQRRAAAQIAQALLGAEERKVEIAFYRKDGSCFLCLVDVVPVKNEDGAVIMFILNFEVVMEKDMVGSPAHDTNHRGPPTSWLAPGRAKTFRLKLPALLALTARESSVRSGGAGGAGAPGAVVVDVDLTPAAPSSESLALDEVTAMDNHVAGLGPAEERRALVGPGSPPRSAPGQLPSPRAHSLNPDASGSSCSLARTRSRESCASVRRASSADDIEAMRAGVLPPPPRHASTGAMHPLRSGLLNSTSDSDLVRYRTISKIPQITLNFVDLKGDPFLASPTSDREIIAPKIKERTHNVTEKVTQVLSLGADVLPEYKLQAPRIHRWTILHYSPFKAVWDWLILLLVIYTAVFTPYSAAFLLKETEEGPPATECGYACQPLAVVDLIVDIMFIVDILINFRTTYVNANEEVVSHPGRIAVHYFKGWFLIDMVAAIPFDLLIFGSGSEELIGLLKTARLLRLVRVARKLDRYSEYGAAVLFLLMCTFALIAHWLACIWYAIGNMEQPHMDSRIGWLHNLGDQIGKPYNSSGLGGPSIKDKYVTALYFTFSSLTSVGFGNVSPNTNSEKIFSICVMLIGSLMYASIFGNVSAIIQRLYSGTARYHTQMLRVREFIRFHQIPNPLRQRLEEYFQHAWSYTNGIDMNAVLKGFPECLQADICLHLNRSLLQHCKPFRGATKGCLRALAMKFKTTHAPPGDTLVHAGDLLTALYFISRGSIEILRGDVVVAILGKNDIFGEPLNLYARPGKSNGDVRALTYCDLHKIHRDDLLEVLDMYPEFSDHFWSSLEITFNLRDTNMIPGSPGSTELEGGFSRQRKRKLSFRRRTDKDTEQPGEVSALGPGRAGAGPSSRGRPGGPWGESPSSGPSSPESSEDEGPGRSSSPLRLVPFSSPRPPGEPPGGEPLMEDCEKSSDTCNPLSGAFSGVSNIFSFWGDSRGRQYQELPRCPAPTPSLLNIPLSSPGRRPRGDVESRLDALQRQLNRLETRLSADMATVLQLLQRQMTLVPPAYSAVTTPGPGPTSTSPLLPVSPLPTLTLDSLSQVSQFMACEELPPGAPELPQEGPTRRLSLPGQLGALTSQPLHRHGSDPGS

| SMILES | hERG current change (%, negative = inhibition) at 1uM |
| --- | --- |
| COC(=O)c1sccc1NC(=O)CSCCc1ccccn1 | 2.84% |
| Cc1[nH][nH]c(=O)c1C(c1ccc([N+](=O)[O-])cc1)c1c(C)[nH][nH]c1=O | 16.2% |
| COc1cc(C2Nc3cc(Cl)c(S(N)(=O)=O)cc3S(=O)(=O)N2)cc(OC)c1OC (stereo not drawn) | 2.85% |
| CCCN1C(=O)/C(=C\c2ccncc2)SC1=Nc1ccccc1 | 8.22% |
| CCCCCN(C(=O)CCC(=O)OCC(=O)c1ccc(CCC)cc1)c1c(N)n(CCCC)c(=O)[nH]c1=O | 4.95% |
| COc1ccc(/C=N/NC(=O)c2cccnc2)cc1CN1CCN(c2ccc(F)cc2)CC1 | -0.578% |
| O=C(CCCSc1nc2ccccc2[nH]1)Nc1ccccc1 | 12.6% |
| COc1ccc2nc(C)cc(SCC(=O)NNC(=O)COc3ccccc3)c2c1 | 14.9% |
| CC(C)CCNC(=O)c1ccc2nc[nH]c2c1 | 4.71% |
| CCOc1ccc(C(=O)NC(=S)Nc2ccc(NC(=O)c3ccco3)cc2)cc1[N+](=O)[O-] | 12.7% |
| COc1ccc(C2CC(C(F)(F)F)n3nc(C(=O)O)c(Cl)c3N2)cc1OC (stereo not drawn) | 9.38% |
| Cc1ccc(S(=O)(=O)CCC(=O)Nc2nc(C(C)(C)C)cs2)cc1 | 10.7% |
| Cc1cccc(-n2cnc3c(sc4nc(N5CCOCC5)c5c(c43)CCCC5)c2=O)c1 | 15.6% |
| O=C(NCCCCCCNC(=O)N1CCCCCC1)N1CCCCCC1 | -0.489% |
| COc1nc(C)nc2c1sc(=S)n2C | 10.1% |
| CCc1cccc(NC(=O)c2cc(OC)c(OC)c(OC)c2)c1 | -3.13% |
| COC(=O)c1nn(C23CC4CC(CC(C4)C2)C3)c2c1C(=O)N(c1ccc(Br)cc1)C2=O | 15.7% |
| CCCCN(C)CC(O)Cn1cc(/C=C/C(=O)c2ccc(OCC)cc2)c2ccccc21 (stereo not drawn) | 9.02% |
| O=C(COC(=O)CCC(=O)c1cccs1)Nc1ccc(S(=O)(=O)N2CCOCC2)cc1 | 6.1% |
| Cc1csc(NC(=O)[C@@H]2CCCN2C(=O)c2cccs2)n1 | -2.08% |
| Cc1ccccc1-c1ccccc1N | 8% |
| Cc1cc(C)nc(SCc2nnc(SCC(=O)N3CCCc4ccccc43)o2)n1 | 3.38% |

| SMILES | hERG current change (%, negative = inhibition) at 1uM |
| --- | --- |
| O=S(Cc1ccc(Cl)cc1)c1ncc(CO)n1Cc1ccccc1 (stereo not drawn) | -4.26% |
| CCNc1nc(NCC)nc(N/N=C(\C)c2ccc(OC)cc2)n1 | 9.95% |
| O=C(CCC1N=C2c3ccccc3N=C(SCC(=O)NCc3ccco3)N2C1=O)NCc1ccco1 (stereo not drawn) | 13.2% |
| Nc1nc(NCCCN2CCOCC2)nc(Nc2cccc(F)c2)c1[N+](=O)[O-] | 0.167% |
| CC1=NN(C(=O)CSCc2ccccc2)C(O)(c2ccccc2)C1 (stereo not drawn) | 2.61% |
| C#CCOCCOCCOCCNc1nc(N2CCN(C(=O)[C@H](CCC(=O)O)n3cc(C(N)CC(C)C)nn3)CC2)nc(N2CCN(C(=O)[C@H](Cc3cc4ccccc4[nH]3)n3cc(C(N)CC(C)C)nn3)CC2)n1.Cl (stereo partly drawn) | 7.57% |
| O=C(Nc1ccc(C2=NCCN2)cc1)c1ccc(C(=O)Nc2ccc(C3=NCCN3)cc2)c([N+](=O)[O-])c1 | 8.94% |
| O=C(NC1CC1)C(=O)c1c[nH]c2ccccc12 | 24.9% |
| Cc1onc(-c2c(Cl)cccc2Cl)c1C(=O)NN1CCCCCC1 | 5.41% |
| Cc1cc(NC(=O)CCC(=O)N(Cc2ccco2)C2(C(=O)NC3CCCC3)CCC(C)CC2)no1 (stereo not drawn) | 13.3% |
| Br.CC12CN3CC(C)(CN(C1)C3c1cc3ccccc3[nH]1)C2=O (stereo not drawn) | -7.45% |
| COc1ccccc1N1CCN(C(=O)C2=CC=CN3CCS(=O)(=O)N=C23)CC1 | 13.7% |
| Cc1cccc(CC(=O)Nc2ccc(C(=O)N3CCOCC3)cc2)c1 | 7.84% |
| CCOC(=O)c1ccc(NC(=O)CSc2nnc(CC)o2)cc1 | 5.8% |
| Cc1cc(C(=O)N2CCN(Cc3ccc4c(c3)OCO4)CC2)cs1 | -21.8% |
| S=c1[nH]nc(COc2ccc3ccccc3c2)o1 | 11.2% |
| CCn1c(SCC(=O)N2CCCC2)nc2ccccc2c1=O | -7.76% |
| O=C(COC(=O)c1ccc(O)cc1O)Nc1nnc(-c2ccccc2)o1 | 12% |
| Cc1noc(C)c1COc1ccccc1C(=O)N(C)Cc1ccc(C(C)(C)C)cc1 | 1.72% |
| Cc1cccc(NC(=O)c2cc(S(=O)(=O)N3CCC4(CC3)OCCO4)ccc2F)c1 | 4.74% |
| Cc1ccc(C(=O)Nc2nc3ccc(S(C)(=O)=O)cc3s2)o1 | 1.91% |
| O=C(CSc1nnnn1-c1ccccc1Cl)Nc1ccc2c(c1)OCCO2 | 14.1% |

| SMILES | hERG current change (%, negative = inhibition) at 1uM |
| --- | --- |
| Cc1ccc2nc(NCCC(=O)O)nc(-c3ccccc3)c2c1 | 12% |
| COc1ccc(CN2CCCC(N3CCN(c4cccc(Cl)c4)CC3)C2)cc1OC (stereo not drawn) | -2.99% |
| CCn1c(=O)oc2cc(NC(=O)CCl)ccc21 | 15.9% |
| Cc1nnc2sc(SCC(=O)Nc3cccc(Cl)c3)nn2c1=O | -3.42% |
| Cc1cccc(C)c1NC(=O)CSc1ncnc2nc[nH]c12 | 9.36% |
| CNC(=O)c1ccc(C)c(NC(=O)C2=C(C)OCCS2)c1 | 17.6% |
| O=C(Cc1coc2ccc3ccccc3c12)Nc1nccs1 | 1.22% |
| COC(=O)CSc1nc2ccccc2c(=O)n1C | 5.29% |
| O=C(COc1ccccc1)NC1CCCCC1 | 17.2% |
| COc1cc(-c2nnc3sc(-c4ccncc4)nn23)cc(OC)c1OC | 3.33% |
| COc1cc(/C=C/C(=O)OCC(=O)c2c(N)n(C)c(=O)n(C)c2=O)ccc1O | 4.57% |
| CCOC(=O)CSc1nc2c(c(=O)[nH]c(=O)n2C)n1CCCc1ccccc1 | 1.75% |
| Cc1ccc(S(=O)(=O)N(C(=N)N)c2nc(N(C)C)nc(N(C)C)n2)cc1 | 7.68% |
| COc1cccc(C(=O)NCCS(=O)(=O)NC(C)CCc2ccccc2)c1 (stereo not drawn) | -0.964% |
| COc1ccccc1C(=O)COC(=O)c1cc([N+](=O)[O-])ccc1N1CCOCC1 | 1.57% |
| CCN(CC)CCCn1c(C)cc2c(c1=O)C(c1ccccc1)C(C#N)=C(N)O2 (stereo not drawn) | 0.132% |
| Fc1ccc(N2CCN(c3ncnc4nc[nH]c34)CC2)cc1 | 5.57% |
| Nc1ccccc1C(=O)OCCOc1ccccc1 | 9.85% |
| COCCn1c(=N)c(S(=O)(=O)c2ccc(F)cc2)cc2c(=O)n3cccc(C)c3nc21 | 8.04% |
| O=C(Nc1ccccc1O)c1ccc2c(c1)C(=O)N(Cc1ccco1)C2=O | 10.8% |
| CNc1nc(N)c([N+](=O)[O-])c(Nc2cccc(Cl)c2)n1 | 12.8% |
| O=C(NCc1ccccc1CN1CCCC1)c1cccc(S(=O)(=O)N2CCCC2)c1 | -15.4% |

| SMILES | hERG current change (%, negative = inhibition) at 1uM |
| --- | --- |
| C/C(=N\NC(=S)NC1CCCCC1)c1cccc(Br)c1 | 9.71% |
| COc1cccc(CN2CCC(n3nccc3NC(=O)C3CC3)CC2)c1 | -41.3% |
| CCOc1ccccc1N(CC(=O)N/N=C(\C)c1cccc(Br)c1)S(C)(=O)=O | 4.68% |
| Cl.NCCCNc1ccc([N+](=O)[O-])cc1C(F)(F)F | 12.7% |
| O=C(NCc1cccnc1)C1c2ccccc2C(=O)N1Cc1ccccc1 (stereo not drawn) | 6.72% |
| COC(=O)c1ccc(CN2CCCC(C(=O)c3cc(F)ccc3OC)C2)cc1 (stereo not drawn) | -8.3% |
| CCC(CC)c1nnc(NC(=O)C2COc3ccccc3O2)s1 (stereo not drawn) | 4.57% |
| CCC(=O)Nc1c2c(nn1-c1ccccc1C)CSC2 | 15.8% |
| COc1ccc(Nc2cc(C)nc3ccccc23)cc1.Cl | -15.6% |
| NC(=O)C1(NC(=O)[C@@H]2CC3(CC(c4cccc(NC(=O)[C@@H]5CCC(=O)N5)c4)=NO3)CN2C(=O)Cc2ccc(C(F)(F)F)cc2)CC1 (stereo partly drawn) | 12.7% |
| CN(C)c1ccc(C2NCCS2)cc1 (stereo not drawn) | 15.4% |
| CCn1cc(/C=C/C(=O)Nc2c(C)nn(Cc3ccccc3)c2C)cn1 | 6.45% |
| COc1ccccc1Nc1ncc(C(=O)N2CCN(Cc3ccc(OC)c(OC)c3OC)CC2)c2ccccc12 | -3.69% |
| Cc1ccccc1C(=O)N(C)Cc1ccccc1 | 3.31% |
| CC(C)Cn1c(SCC(=O)N2CCOCC2)nc2ccccc2c1=O | 5.28% |
| Cc1ccc(OCCCC(=O)Nc2ccc(N3CCOCC3)cc2)c(C)c1 | 6.49% |
| O=C(N/N=C/c1c(O)n(Cc2ccc(F)cc2)c(=S)[nH]c1=O)c1ccncc1 | 3.6% |
| O=C1CCCN1CCCNS(=O)(=O)c1ccc(F)c(F)c1 | 13.5% |
| CCOC(=O)C1=C(N)N2C(=O)C(C)SC2=C(C(=O)OC)C1c1cccc(OC)c1 (stereo not drawn) | 2.16% |
| COc1ccc(-c2[nH]ncc2CNCCCSC)cc1F | -3.56% |
| Cc1cc2ccccc2c(=O)[nH]1 | 15.5% |
